Measured values: PubChem BioAssay AID741 (SRMLSC, 2007)
The shares of active, inactive and inconclusive entries below differ from those in the screen. Active and inactive are the calls of the source. Cut-off read from the data, not from the text of the source: active = toxicity enhancement factor above about 0.054; inconclusive = between about 0.00067 and that limit; inactive = weaker than that.

Assay: MRP-overexpressing cell chemosensitization – dose response (AID 741)
Details: MRP-overexpressing cells, viability with/without cytotoxic drug; stronger effect = higher value

SMILES	toxicity enhancement factor
Cc1cc(NC(=O)C2=C(O)c3ccccc3S(=O)(=O)N2C)no1	inconclusive: 0.0149
CCOC(=O)c1c(NC(=O)OC)sc(C(=O)N(CC)CC)c1C	inconclusive: 0.0148
Cc1ccc(NC(=O)Cn2c(=O)n(Cc3ccco3)c(=N)c3c4c(sc32)COC(C)(C)C4)cc1	inconclusive: 0.0098
Cn1c(=O)[nH]c(=O)c2c1nc(CN1CCOCC1)n2CCc1ccccc1	inconclusive: 0.0127
CCCCn1c(N2CCC(Cc3ccccc3)CC2)nc2c1c(=O)[nH]c(=O)n2C	inconclusive: 0.0085
CCCn1c(=O)[nH]c(=O)c2[nH]cnc21	inactive: -0.0054
COc1ccccc1Nc1nc(N)nc(CN2CCCCCC2)n1	inconclusive: 0.0035
Cc1ccc(C(=O)CSc2nnc(COc3cccc(C)c3)o2)cc1	inconclusive: 0.0007
C=CCSc1nnc2n(-c3ccccc3OC)c(=O)c3c4c(sc3n12)CCC4	inconclusive: 0.0207
N#Cc1ccc(-n2c(-c3ccccc3)nnc2-c2ccccc2)cc1C#N	inconclusive: 0.0104
Cn1c(=O)c2c(nc(CN3CCN(c4ccc(F)cc4)CC3)n2Cc2ccccc2F)n(C)c1=O	inconclusive: 0.0081
COc1ccc2c(Cl)c(C(=O)NCCCn3ccnc3)sc2c1	inconclusive: 0.0187
Cn1c(=O)[nH]c(=O)c2c1nc(N1CCCCCC1)n2Cc1cccc2ccccc12	inconclusive: 0.0119
O=C(NCc1cccnc1)c1cn(CCc2ccccc2)nn1	inconclusive: 0.0096
C=CCn1c(=O)c2c3c(sc2n2c(Nc4ccccc4)nnc12)CCCC3	inconclusive: 0.009
Cc1cc(C)n(CC(O)CN2C(=O)NC(C)(C)C2=O)n1 (stereo unspecified)	inconclusive: 0.0066
CCOC(=O)C1=C(C)NC2=C(C(=O)C(C(=O)OCC)C(c3ccco3)C2)C1c1ccccn1 (stereo unspecified)	inconclusive: 0.0114
COc1ccc(OC)c(NC(=O)CSc2nc3ccccc3c(=O)n2CCNC(C)=O)c1	inconclusive: 0.028

SMILES	toxicity enhancement factor
CC1CN(c2nc3ccccn3c(=O)c2/C=C(\C#N)S(=O)(=O)c2ccccc2)CC(C)O1 (stereo unspecified)	active: 0.0581
CC(C)Cc1ccc(C(C)C(=O)O)cc1 (stereo unspecified)	inactive: -0.0059
CC1(C)CC(=O)C2=C(C1)OC(c1ccncc1)C(C#N)=C2N (stereo unspecified)	inconclusive: 0.0065
Cc1cnc(NC(=O)C2=C(O)c3ccccc3S(=O)(=O)N2C)s1	inconclusive: 0.0046
O=C1CCCC2=C1C(c1cccs1)n1nc(SCc3ccccc3F)nc1N2 (stereo unspecified)	active: 0.0631
N#Cc1ccc(CSc2nnc(-c3cccs3)n2-c2ccccc2)cc1	inactive: -0.0117
CS(=O)(=O)N1CCN(c2ccccc2NC(=O)c2cccs2)CC1	inconclusive: 0.0128
Brc1ccc(-c2nc3ncccn3c2NC2CCCCC2)o1	inconclusive: 0.0345
CC1CN(c2nc3c(c(=O)n(C)c(=O)n3C)n2Cc2c(F)cccc2Cl)CC(C)O1 (stereo unspecified)	inconclusive: 0.0164
Cc1ccc(C(=O)Nc2ccccc2N2CCN(C(=O)C(C)C)CC2)cc1	inconclusive: 0.0123
O=C(NCCc1ccccc1)c1cc(-c2ccco2)on1	inconclusive: 0.0095
CCOC(=O)c1ccccc1NC(=O)c1cccs1	inconclusive: 0.0054
CC1CN(c2nc(-c3ccccc3)nc3ccccc23)CC(C)O1 (stereo unspecified)	inconclusive: 0.0173
CCCNc1nc2c(c(=O)n(C)c(=O)n2C)n1Cc1cccc(C)c1	inconclusive: 0.0165
CCCn1c(C)cc(/C=C(\C#N)C(=O)OCC(=O)NC(=O)NC(C)(C)C)c1C	inconclusive: 0.0139
CN1CCc2c(sc3c2c(=O)n(-c2ccc(Cl)cc2)c2nncn32)C1	inconclusive: 0.0118
O=C(Cc1cccs1)N1CCCC(c2nc3c(nnn3Cc3cccc(Cl)c3)c(=O)[nH]2)C1 (stereo unspecified)	inconclusive: 0.0018
Cc1ccccc1Cn1c(CN2CCc3ccccc3C2)nc2c1c(=O)n(C)c(=O)n2C	inconclusive: 0.009
